Measured values published in the supplement of paper PMC4466236.
The full ranking holds about 33,000 sequences; the median of “E-score (dimensionless, -0.5 to 0.5)” is about -0.058, and the highest 2% start at about 0.35. Some of the results follow.

The sequences below were run on MvaT (assay: PBM 8-mer E-score (mean of HK and ME arrays) (E-score (dimensionless, -0.5 to 0.5)); higher = stronger relative binding preference; most listed sequences are background and not binding sites).
How it was run: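 Full-length P. aeruginosa MvaT carrying an N-terminal glutathione S-transferase tag was tested by protein binding microarray following a previously described protocol. Two universal double-stranded 60-mer arrays, ME and HK, were used, each with a constant 25-mer primer region and a variable 35-mer region covering all 8-mers. The rank-based E-score is the mean of the two arrays, parsed with a custom script. Its range runs from -0.5 to 0.5 for each 8-mer.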

| Sequence | PBM 8-mer E-score |
| --- | --- |
| AAACGGTA | -0.0714 |
| CTCTCTGC | -0.243 |
| ACCCACGT | -0.138 |
| GCTCTTTA | 0.117 |
| ACATTTAT | 0.336 |
| ATGACGAG | 0.0346 |
| ATAAATGG | 0.14 |
| CGGGATTA | 0.00532 |
| ACGGACTC | -0.223 |
| GCAACCCC | -0.264 |
| ACTGAGAA | 0.0967 |
| TAGATGGA | -0.0217 |
| GAGTCCGC | -0.237 |
| CACGGAAA | -0.113 |
| ATCACAAT | 0.079 |
| TCCACGCA | -0.208 |
| ACGTGACG | -0.268 |
| CTAGCAAC | -0.0993 |
| GGACGCAC | -0.112 |
| GTAGAATA | 0.123 |
| CAGCTCGG | -0.199 |
| ACACGAAT | 0.142 |
| GTATCGGA | -0.056 |
| ACTACCGA | 0.0612 |
| ATTCCGCG | 0.132 |

| Sequence | PBM 8-mer E-score |
| --- | --- |
| AATATGAA | 0.329 |
| CTGCCTGA | -0.114 |
| AAGCCAGA | -0.116 |
| AACCTAAT | 0.11 |
| CCTCCTAG | -0.176 |
| AGGACTGG | -0.0983 |
| GTGACATA | 0.203 |
| CTCCAGAG | -0.211 |
| GGTCGCGA | -0.238 |
| AGGGTGCC | -0.245 |
| ATAGTCAA | 0.165 |
| AATTCAAA | 0.282 |
| ACCAAGGG | -0.281 |
| GGGTGTAA | 0.122 |
| CACAAAGG | -0.23 |
| AGCAGACA | -0.107 |
| ACGGACAT | -0.0651 |
| CCCACTGA | -0.146 |
| CCACAGCC | -0.177 |
| CCCAGTCC | -0.254 |
| TCATCGGA | -0.0792 |
| TCGGGGCA | -0.000178 |
| ACATTTTC | 0.2 |
| GACCTCCC | -0.251 |
| TAGGATAA | 0.226 |

| Sequence | PBM 8-mer E-score |
| --- | --- |
| CGCTAACC | -0.123 |
| ATCGTCAC | -0.196 |
| GTGCTTAA | 0.181 |
| CCAGAAGG | -0.21 |
| ACAACTAA | 0.288 |
| ACTGACAA | 0.122 |
| GCAAGTCA | -0.0193 |
| GGACATGA | -0.188 |
| ATCCTAAA | 0.151 |
| ACCTAATA | 0.308 |
| AAGACGCA | -0.14 |
| AGTTTTAG | 0.162 |
| GTTACTTA | 0.282 |
| GCGCCCGA | -0.32 |
| TAGCGACA | -0.11 |
| CACCAGAG | -0.114 |
| AGCTCCAC | -0.0774 |
| AAATAAGG | 0.322 |
| GGTATAAC | 0.226 |
| ATCGGCGC | -0.104 |
| ACGCCTCA | -0.121 |
| GCATTAAC | 0.114 |
| AGGAAGAC | -0.127 |
| ACACGATG | -0.0978 |
| AGATGCTC | -0.0886 |

| Sequence | PBM 8-mer E-score |
| --- | --- |
| CAGTGGCG | -0.222 |
| GTAGGCCA | -0.262 |
| CGTCCCAG | -0.236 |
| ACGTGTTG | -0.0464 |
| ACCGATGG | -0.195 |
| AGCTATAC | 0.144 |
| GAAGTTGC | 0.212 |
| CGACATAA | 0.117 |
| CTCGCAGC | -0.11 |
| GAGGGATC | -0.116 |
| GAAGTTTA | 0.304 |
| AGTCGGCG | -0.257 |
| ACTCGTGC | -0.117 |
| TAAGCAGA | -0.0986 |
| CCAACGCA | -0.0901 |
| CCCAACGA | -0.211 |
| ACCTTAGT | 0.0805 |
| GACGACTC | -0.268 |
| AGGACTCA | -0.199 |
| AACCTGAC | -0.0368 |
| AGACCTCA | -0.252 |
| AGCTGAAA | 0.00696 |
| ATGGCTCA | -0.0273 |
| AATGTCCT | -0.0592 |
| AGGTACTC | -0.174 |

| Sequence | PBM 8-mer E-score |
| --- | --- |
| ACCTGCGG | -0.206 |
| CACGATCA | -0.0135 |
| CGCATGCC | -0.0174 |
| AGCTGGAC | -0.285 |
| AAAACTAC | 0.191 |
| GACTCTGC | -0.11 |
| GGAATGTA | 0.0473 |
| CTACCTAA | -0.0191 |
| AACAGGAT | 0.121 |
| GGGCCAAC | -0.115 |
| CTTTGGCA | -0.138 |
| AAAAGGAA | 0.0508 |
| ACCGGACC | -0.11 |
| CCAATGTC | -0.027 |
| CATGTGAA | -0.0666 |
| CATGGCTC | -0.0506 |
| CCCAGGGC | -0.305 |
| GGTCAAAA | -0.000251 |
| GAAGACTA | 0.0919 |
| GATGGCCC | -0.31 |
| GATAACAA | 0.263 |
| ACTAACGG | 0.183 |
| ATGGCGTA | -0.0349 |
| GCTACTTA | 0.142 |
| GACTGAGA | -0.191 |

| Sequence | PBM 8-mer E-score |
| --- | --- |
| CTACTCCA | -0.00818 |
| ACTCGCCT | -0.1 |
| CATGGTGA | -0.154 |
| GCGTCCCC | -0.142 |
| AGGGTGGC | -0.217 |
| CGCTCGAG | -0.0113 |
| CTCCACGC | -0.183 |
| CCCTAGTA | -0.0637 |
| ACCGACCT | -0.197 |
| GTTTGCGA | 0.0744 |
| CGCCGAAC | -0.073 |
| TCACAAGA | 0.0158 |
| ATGCGTAC | -0.152 |
| CGCAGCCA | -0.253 |
| CTACCAGA | -0.141 |
| ACGACACA | -0.0679 |
| ATAGCTCG | 0.0113 |
| GAGTGAGA | -0.0245 |
| ATAGCCAT | -0.0374 |
| AGTTGGGA | 0.134 |
| CTGATGAA | -0.0243 |
| AACCTGTC | -0.231 |
| ATTCGACC | -0.0894 |
| CGCGTTCC | -0.173 |
| TGTAATAA | 0.399 |

| Sequence | PBM 8-mer E-score |
| --- | --- |
| GCCTATAC | -0.0364 |
| AGATTCCT | 0.00347 |
| CCATTTGC | -0.0387 |
| ACGAACCA | -0.253 |
| CAAGTAAG | 0.177 |
| CAGCGAGG | -0.237 |
| AAACGATT | 0.0531 |
| GCATCTGA | -0.223 |
| TGGAACCA | -0.0394 |
| GGTCACGA | -0.243 |
| CGGCAGAA | -0.142 |
| GCAGTGCC | -0.294 |
| ATATGTCA | 0.27 |
| CAAGGTGA | -0.162 |
| ATAACCGA | 0.202 |
| CCAGTTAA | 0.129 |
| AATTCATA | 0.227 |
| GTTATCCA | 0.122 |
| CCATAGAC | 0.00682 |
| GACCGTCC | -0.259 |
| AACACGTA | 0.131 |
| AACGTAGG | -0.0945 |
